Test results as given in patent US20220193134A1, “CO-USE OF LENALIDOMIDE WITH CAR-T CELLS” (CRISPR THERAPEUTICS AG, priority 2020, published 2022).

Experiments:
CD19+ Raji cells = experiment: Flow cytometry-based cytotoxicity assay of anti-CD19 CAR-T cells; assay type: cell-based; details: anti-CD19 CAR-T cells expanded with Lenalidomide, harvested day 6/7 and day 13/15, 24 hours, varying ratios, two studies
Method: CD19+ Raji cell line was used for the anti-CD19 CAR-T cells, a BCMA+ cell line was used for the anti-BCMA CAR-T cells, and a CD70+ cell line was used for the anti-CD70 CAR-T cells.
For anti-CD19 CAR-T cells, CD19+ Raji cells were labeled with eFluor670 and incubated with CAR-T cells at varying ratios. CAR-T cell cytotoxicity was analyzed at 24 hours by assessing labeled cells in the live gate compared to control sample.

anti-CD19 CAR-T cells = experiment: CD4 and CD8 ratio of anti-CD19 CAR-T cells; details: lenalidomide treated cells, day 15, study #2
anti-BCMA CAR-T cells = experiment: CD4 and CD8 ratio of anti-BCMA CAR-T cells
anti-CD70 CAR-T cells = experiment: CD4 and CD8 ratio of anti-CD70 CAR-T cells; assay type: cell-based, human; details: day 8 and day 15, vs untreated anti-CD70 CAR-T cells
From the text: Compared with untreated anti-CD70 CAR-T cells, Lenalidomide treatment didn't change CD4+% and CD8+% on day 8 and day 15. Similar to the anti-CD19 CAR-T cells, there was skewing of CD8+ cells at day 15, which was independent from the timing of CD70 electroporation and Lenalidomide treatment.

Nc1cccc2c1CN(C1CCC(=O)NC1=O)C2=O (centres unmarked) [Lenalidomide]
killing capacities (percentage of cell lysis) (CD19+ Raji cells): comparable or higher killing capacities | increase of CD8+ cells (anti-CD19 CAR-T cells): 10%-14% | overall distribution of CD4 and CD8 cells (anti-BCMA CAR-T cells; day 8): not significantly altered | increase of CD8 positive cells (anti-BCMA CAR-T cells; day 8, dose-dependent, vs Lenalidomide untreated cells): 7-15% | CD4+% and CD8+% (anti-CD70 CAR-T cells): didn't change
